Laboratory results published in PubChem BioAssay AID1345082 (National Center for Advancing Translational Sciences (NCATS), 2018).
The campaign covered roughly 94,000 compounds. About 4,000 (4.3%) were called active. The inconclusive results got no clear call from the source; some entries with a clear call stand among them for comparison. Calls come from the whole dose curve; as a rule, active = well fitted inhibition curve with a large enough effect; inconclusive = small, poorly fitted or top-dose-only effect; inactive = no such curve, though single readings can be large or run the other way. Potencies beside an inconclusive call are fits to weak or partial responses and may not hold up.

Assay: Cytotoxic Profiling in NIH 3T3 Cell Line of Diverse Libraries Using Quantitative High-Throughput Screening; note: nearly all actives have a fitted effect of over 55% in size
Conditions: NIH 3T3 viability, CellTiter-Glo ATP luminescence, 48-72 h; series mostly up to 96.7 µM
In short: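 Viability of NIH 3T3 cells after 48 or 72 hr compound treatment at 37 °C was assessed by CellTiter-Glo, with luminescence imaged following a 10 min room-temperature step.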
Potency is the fitted concentration of half-maximal effect; tags give direction and shape of the fitted curve.

SMILES | Potency
O=C(c1cccc(Cl)c1)N1CCC2(CC1)NC(=O)N(c1ccccc1Cl)N2 | inconclusive: 44.7 µM [inhibitor, partial curve, poor fit]
C=CCn1c(CN2CCC3(CC(=O)NC3=O)C2)nc2ccccc21 (stereo unspecified) | inconclusive: 89.1 µM [inhibitor, single point]
C[S+](=O)([O-])c1cccc(NC(=O)c2nnn3c2CN(Cc2cccc(Cl)c2)C(=O)CC3)c1 | inconclusive: 25.1 µM [inhibitor, full curve]
CC1Oc2ccc(NC(=O)c3ccc4c(c3)OCO4)cc2CN(Cc2ccccc2)C1=O (stereo unspecified) | inconclusive: 25.1 µM [inhibitor, full curve]
Cc1ccc(C2Cn3nnc(-c4nc(-c5cccc(Cl)c5)no4)c3CO2)c(C)c1 (stereo unspecified) | inactive
Cc1ccc(C(=O)NCCn2ccn3nc(-c4cc(C)ccc4C)cc3c2=O)cc1 | inactive
O=C(NC1CCCc2c1[nH]c1ccccc21)c1n[nH]c2c1CCCC2 (stereo unspecified) | inconclusive: 5.62 µM [inhibitor, full curve]
CC1=NS(=O)(=O)N(Cc2ccccc2)C=C1C(=O)OCc1nc(-c2ccccc2)no1 | inconclusive: 35.5 µM [inhibitor, partial curve]
CN(C)c1cccc(C(=O)N2CCC3(CC2)NC(=O)N(Cc2ccc(F)cc2)C3=O)c1 | inconclusive: 50.1 µM [inhibitor, partial curve, poor fit]
Cc1noc(C)c1-c1cc2cc(CN(C)C)oc2c(N2CCN(c3ccccn3)CC2)n1 | active: 35.5 µM
COc1ccc2c(c1)c(CN1C[C@@H](C(N)=O)[C@H](c3nc(C)no3)C1)cn2C(C)C | inconclusive: 39.8 µM [inhibitor, partial curve, poor fit]
Cc1ccc(-c2ncc(NC(=O)c3ccc(Cl)s3)cn2)cc1 | inactive
CC(C)(C)c1noc(-c2nnn3c2COC(c2ccc(Cl)cc2)C3)n1 (stereo unspecified) | inconclusive: 39.8 µM [inhibitor, partial curve, poor fit]
O=C(c1ccc2c(c1)OCO2)N1CCC(n2cc(-c3nc(-c4ccccc4)no3)nn2)C1 (stereo unspecified) | inactive
CC(C)(C)c1ccc(N2C(=O)[C@@H]3C[C@@H](NC(=O)[C@@H](O)c4ccccc4)CCN3C2=O)cc1 | inconclusive: 44.7 µM [inhibitor, partial curve, poor fit]
CCCC(C)N1CC2(CCN(C(=O)Cn3nc(C)cc3C)CC2)OC1=O (stereo unspecified) | inactive
CN(CCCNC(=O)CN1CC2CC(C1)[C@H]1CCCC(=O)N1C2)C1CCCCC1 (stereo partly specified) | inactive
O=c1c2c(n(Cc3cccnc3)n1-c1ccccc1)CN(Cc1ccc(O)cc1)CC2 | inconclusive: 79.4 µM [inhibitor, partial curve, poor fit]
COCCN1C[C@H]2COc3ccc(C)cc3[C@H]2N(C(=O)CC2CCCC2)CCC1=O | inconclusive: 70.8 µM [inhibitor, single point]
O=C1CCN(S(=O)(=O)c2ccccc2)CCCN(C2CCCCC2)CCN1 | inactive
Cc1noc(C)c1[S+](=O)([O-])N1CCC2(CC(C(C)C)=NO2)C1 (stereo unspecified) | inactive
COCCn1c2c(c(=O)n1-c1ccccc1)CCN(C(=O)c1ccccc1)C2 | inconclusive: 112 µM [inhibitor, single point]

SMILES | Potency
C#CCNC(=O)[C@@H]1Cc2cn(CC3CC3)c3cccc(c23)[C@H](CC(C)C)N1 | active: 44.7 µM
C[C@@H](NC(=O)c1ccccc1)c1onc(-c2ccc(F)cc2)c1C(=O)O | inactive
O=C(CCn1ccc(=O)[nH]c1=O)N[C@H](c1ccccn1)C1CC(O)C1 (stereo partly specified) | inactive
CC1CCC(NC(=O)C2(c3ccc(NS(C)(=O)=O)cc3)CCCCC2)CC1 (stereo unspecified) | inconclusive: 50.1 µM [inhibitor, partial curve, poor fit]
O=C(Nc1ccc2c(c1)OCCO2)N1CCc2nn(CC3CC3)c(=O)n2CC1 | inactive
CCn1cnnc1CC1CCN(C(=O)c2cc(-c3ccc(F)cc3)nc3ccccc23)CC1 | inconclusive: 44.7 µM [inhibitor, partial curve, poor fit]
COc1ccccc1-c1cc(C(=O)N(C)C)nc2c1cnn2C | inactive
CCN1CC(CNc2nccc(-c3c(C)nn(C)c3C)n2)CC1=O (stereo unspecified) | inactive
COc1ccc2[nH]c(C[C@@H]3C[C@@H](C(C)C)[C@H](CN)C=C3C)nc2n1 | inconclusive: 126 µM [inhibitor, single point]
COc1cccc(CN2CCCCCNC(=O)CC2c2ccccc2)c1OC (stereo unspecified) | inconclusive: 70.8 µM [inhibitor, single point]
Cc1cnccc1-c1ccc(NC(=O)NC2CC2)cc1 | inactive
COc1ccccc1CN1CCc2nc(C(=O)Nc3nc(C)cs3)oc2CC1 | inconclusive: 56.2 µM [inhibitor, partial curve, poor fit]
O=C(NCCc1ccc(Cl)cc1)C1CCCN(c2nccc(Nc3ccccc3F)n2)C1 (stereo unspecified) | active: 25.1 µM
COc1ccccc1Cn1c(=O)c(C(=O)NCC2CC2)nc2cccnc21 | inconclusive: 50.1 µM [inhibitor, partial curve, poor fit]
Cc1nn(-c2ccc(C(F)(F)F)cc2)c(C)c1[C@@H]1C=C[C@@H](NC(=O)COc2ccccc2)C1 | inconclusive: 44.7 µM [inhibitor, partial curve, poor fit]
O=C(NCCc1c[nH]c2ccc(F)cc12)C1CC(=O)N(c2n[nH]c3ccccc23)C1 (stereo unspecified) | inconclusive: 70.8 µM [inhibitor, single point]
O=C1CO[C@H]2CN(C3CCC3)C[C@H]2N1Cc1ccc(OC(F)(F)F)cc1 | active: 89.1 µM
Cc1cc(-c2nc(-c3c(C)noc3C)cc3cc(C)oc23)ccn1 | inconclusive: 28.2 µM [inhibitor, full curve, poor fit]
COc1ccc2c(C)c(C(=O)N3CCCOC(Cn4cccn4)C3)oc2c1 (stereo unspecified) | inconclusive: 50.1 µM [inhibitor, partial curve, poor fit]
Cc1cn2nc(C(=O)N3CCC(NC(=O)COc4ccccc4)CC3)cc2c(=O)[nH]1 | inactive
CC1=C[C@@H](CNC(=O)CCC(=O)O)[C@H](C(C)C)C[C@H]1Cc1nc2ccncc2[nH]1 | inactive
COC(CNc1nc(-c2ccccn2)nc2c1c(C)nn2C)c1cccs1 (stereo unspecified) | active: 25.1 µM

SMILES | Potency
CCNC(=O)N(C1CC1)C1CCOC2(CCN(C(=O)COc3ccc(F)cc3)CC2)C1 (stereo unspecified) | inactive
O=C1Nc2ccccc2C12CN([S+](=O)([O-])c1cccc(C(F)(F)F)c1)C2 | inconclusive: 39.8 µM [inhibitor, partial curve, poor fit]
COc1ccc(C(=O)N2CCCn3nc(C)c(-c4ccccc4-c4ccccc4)c32)cc1 | inconclusive: 10 µM [inhibitor, full curve, poor fit]
CC1=C[C@@H](CNS(C)(=O)=O)[C@H](C(C)C)C[C@H]1Cc1nnc(-c2ccccc2F)o1 | inconclusive: 112 µM [inhibitor, partial curve, poor fit]
Cc1ccc(C(=O)N2CCC3(CC2)N(c2ccccc2)C(=O)CS3(=O)=O)c(C)c1 | inactive
COc1nc(-c2ccc(OC)c3ncccc23)ncc1F | inconclusive: 39.8 µM [inhibitor, partial curve]
Cc1oc(C(O)c2cccc(O)c2)nc1C(=O)NCc1ccccc1 (stereo unspecified) | inconclusive: 79.4 µM [inhibitor, partial curve, poor fit]
O=C(NC1CC1)c1cc2n(n1)CCN(C(=O)c1ccc3n[nH]nc3c1)C2 | inactive
CC(NC(=O)C1CN(C2CCCC2)C(=O)N1)c1ccc(F)cc1 (stereo unspecified) | inactive
c1ccc(CCN2CCNc3cc(-c4cn[nH]c4)ncc3C2)cc1 | active: 89.1 µM
CCN(Cc1cnn(CC)c1)C(=O)c1ccc2c(c1)C(O)CCCCCN2C (stereo unspecified) | inconclusive: 11.2 µM [inhibitor, partial curve, poor fit]
CSc1ccc(CNC(=O)C2(c3ccc(NS(C)(=O)=O)cc3)CCCCC2)cc1 | inconclusive: 70.8 µM [inhibitor, single point]
COc1ccc(NC(=O)c2ccc3c(c2)N(C)C2CCCCN2C3=O)cc1 (stereo unspecified) | inconclusive: 63.1 µM [inhibitor, partial curve, poor fit]
Cc1ccccc1NC(=O)CN1C(=O)C(c2ccccc2)=NC12CCCCCC2 | inconclusive: 70.8 µM [inhibitor, single point]
COCCOC(=O)C1=C(C)N=C2SC=C(CC(=O)NCCc3ccccc3)N2C1c1ccccc1 (stereo unspecified) | inconclusive: 50.1 µM [inhibitor, partial curve, poor fit]
COc1cccc(NC(=O)N2CCc3nc4cc(-c5ccccc5Cl)[nH]n4c(=O)c3C2)c1 | inconclusive: 44.7 µM [inhibitor, partial curve, poor fit]
CC(C)(C)c1coc([C@@H]2COCCN2C2CCC2)n1 | inactive
Cc1ccsc1C(=O)NC1CCN(C(=O)N2CC3CC(C2)[C@H]2CCCC(=O)N2C3)CC1 (stereo partly specified) | inactive
Cc1cc(=O)n(CC(=O)Nc2cc(Cl)ccc2C)c(-c2ccc(F)cc2)n1 | inconclusive: 44.7 µM [inhibitor, partial curve, poor fit]
NC(=O)Cn1ccc2cc(OCC3CCN(C(=O)C4CC4)CC3)cnc21 | inconclusive: 112 µM [inhibitor, single point]
Cc1ccc(-c2cc3c(ccn3C(C)C)c(C(=O)NCc3c(C)cc(C)[nH]c3=O)n2)cn1 | active: 79.4 µM
Cc1ncsc1C(=O)N1CC(COc2ccccc2)C2(C1)CN(c1ccccc1)C2 (stereo unspecified) | inconclusive: 100 µM [inhibitor, partial curve, poor fit]
